This is one part of the list.

The labels stand for the following.
B1: PhoQ; a variant is named by its letters at X, in order, P23837 (parent)
chain: MKKLLRLFFPLSLRVRFLLATAAVVLVLSLAYGMVALIGYSVSFDKTTFRLLRGESNLFYTLAKWENNKLHVELPENIDKQSPTMTLIYDENGQLLWAQRDVPWLMKMIQPDWLKSNGFHEIEADVNDTSLLLSGDHSIQQQLQEVREDDDDAEMTHSVAVNVYPATSRMPKLTIVVVDTIPVELKSSYMVWSWFIYVLSANLLLVIPLLWVAAWWSLRPIEALAKEVRELEEHNRELLNPATTRELTSLVRNLNRLLKSERERYDKYRTTLTDLTHSLKTPLXXLQXXLRSLRSEKMSVSDAEPVMLEQISRISQQIGYYLHRASMRGGTLLSRELHPVAPLLDNLTSALNKVYQRKGVNISLDISPEISFVGEQNDFVEVMGNVLDNACKYCLEFVEISARQTDEHLYIVVEDDGPGIPLSKREVIFDRGQRVDTLRPGQGVGLAVAREITEQYEGKIVAGESMLGGARMEVIFGRQHSAPKDE

This assay covers variants of B1. Put plainly: enrichment ratio after two sorts for PhoP signalling (ratio (wild type AVST 3.29)); higher = more functional. As to conditions: with PhoP (E. coli).
As to MNGP, the enrichment ratio was ≤ 0.25. Then NYCS, with ≤ 0.25; and THKS, with ≤ 0.25; and TLGV, with 5.9. Then LQMW, with ≤ 0.25; and LRYG, with ≤ 0.25; and LKRH, with ≤ 0.25. The result for RNFH reads ≤ 0.25; that for WNSF, ≤ 0.25. For the variant YTNI, the enrichment ratio was ≤ 0.25. For the variant KSYC, the enrichment ratio was ≤ 0.25. YPTL: the enrichment ratio is ≤ 0.25. As to ANTN, the enrichment ratio was determined as 0.26. In the case of KDRK, the enrichment ratio was ≤ 0.25. The result for ADVD reads ≤ 0.25. For PHLS, the enrichment ratio is ≤ 0.25. As for HITM, the enrichment ratio was ≤ 0.25. The result for TRSA reads ≤ 0.25. As to TSFV, the enrichment ratio came to 0.503. Then LVVN, with ≤ 0.25; and QDVQ, with ≤ 0.25; and HQGC, with ≤ 0.25. Consider PLTG, for which the enrichment ratio is ≤ 0.25. Then NGCT, with ≤ 0.25; and GHLV, with ≤ 0.25. Consider MKIP, for which the enrichment ratio is ≤ 0.25. The result for WFYG reads ≤ 0.25; that for GKKL, ≤ 0.25. As to MCLK, the enrichment ratio was 8.35. Turning to FDFW, the enrichment ratio was ≤ 0.25. As for MGHF, the enrichment ratio was determined as 0.887. Then NVIK, with ≤ 0.25; and FWCD, with ≤ 0.25. Then QHHG, with ≤ 0.25; and EFMV, with ≤ 0.25; and RVYQ, with ≤ 0.25. Regarding PPCS, the enrichment ratio was ≤ 0.25. The result for SVAG reads 9.11; that for DKMS, ≤ 0.25. Then LGVA, with ≤ 0.25; and FPYQ, with ≤ 0.25. The result for SDCQ reads 7.71; that for DYKS, ≤ 0.25. Turning to SYKQ, the enrichment ratio is ≤ 0.25. As for AMVN, the enrichment ratio was found to be 1.14. Turning to DDIT, the enrichment ratio was ≤ 0.25.

TFAM: the enrichment ratio came out at 18.6.

As for RDNE, the enrichment ratio is ≤ 0.25.

Regarding QCGP, the enrichment ratio is ≤ 0.25.

Regarding VKYD, the enrichment ratio was ≤ 0.25. The result for EIHL reads ≤ 0.25; that for YMRV, ≤ 0.25. The result for IKGT reads ≤ 0.25. On to QTFE, for which the enrichment ratio is ≤ 0.25. Then QSTM, with 5.74; and LCFQ, with ≤ 0.25; and AFPE, with ≤ 0.25. Consider YMEN, for which the enrichment ratio is ≤ 0.25. For FKMT, the enrichment ratio is ≤ 0.25.

Turning to HDYP, the enrichment ratio is ≤ 0.25. Then GGNI, with ≤ 0.25; and GIHH, with ≤ 0.25.

On to WDEV, for which the enrichment ratio was ≤ 0.25.

For MHME, the enrichment ratio was ≤ 0.25. Then TRGS, with ≤ 0.25; and HLTL, with 0.545; and SWVK, with ≤ 0.25. The result for DDKY reads ≤ 0.25; that for FLFQ, ≤ 0.25. The result for YFIH reads ≤ 0.25; that for DGCQ, ≤ 0.25; that for YSYR, ≤ 0.25. With QRVR, the enrichment ratio was ≤ 0.25. Regarding NDQT, the enrichment ratio is ≤ 0.25. In the case of SRAF, the enrichment ratio was ≤ 0.25. With MMRY, the enrichment ratio is ≤ 0.25.

For the variant AINV, the enrichment ratio is ≤ 0.25.

Regarding GWSH, the enrichment ratio is ≤ 0.25.

With RLPF, the enrichment ratio was ≤ 0.25.

AFIP: the enrichment ratio was ≤ 0.25. Regarding YLEI, the enrichment ratio is ≤ 0.25. The result for PYLF reads ≤ 0.25; that for IEWV, ≤ 0.25; that for VGTW, ≤ 0.25.

As to QGCG, the enrichment ratio was found to be 2.75. The result for AELN reads 12.5; that for YSCM, 12.8. The result for NRMK reads ≤ 0.25. LART: the enrichment ratio is ≤ 0.25.

HNCT: the enrichment ratio was ≤ 0.25. On to YHQL, for which the enrichment ratio is ≤ 0.25. As for TGTP, the enrichment ratio is ≤ 0.25. In the case of MKAM, the enrichment ratio is ≤ 0.25. Then IQNP, with ≤ 0.25. Then RQCS, with ≤ 0.25. For the variant FFTD, the enrichment ratio is ≤ 0.25. Consider TPMI, for which the enrichment ratio is ≤ 0.25. In the case of QHDY, the enrichment ratio is ≤ 0.25.

As for PIWT, the enrichment ratio is ≤ 0.25.

SMQI: the enrichment ratio worked out at 5.8. Then HTPK, with ≤ 0.25; and IMWM, with ≤ 0.25. Then FWMT, with ≤ 0.25. The result for ICRN reads ≤ 0.25; that for NRGS, ≤ 0.25. Take ELDL: the enrichment ratio is ≤ 0.25. The result for GFIT reads ≤ 0.25; that for FHCF, ≤ 0.25; that for EGTI, ≤ 0.25.

For VQRQ, the enrichment ratio was ≤ 0.25. Then AVLG, with 8.44; and YGDE, with ≤ 0.25. Then NYQR, with ≤ 0.25; and IGFF, with ≤ 0.25. Then MPSG, with ≤ 0.25; and WEDN, with ≤ 0.25. Consider WNRI, for which the enrichment ratio is ≤ 0.25. With RQKM, the enrichment ratio is ≤ 0.25. The result for QHFV reads ≤ 0.25; that for NHPH, ≤ 0.25. DQFC: the enrichment ratio was ≤ 0.25. The result for IINI reads ≤ 0.25. Turning to VTSA, the enrichment ratio is ≤ 0.25.

For LWST, the enrichment ratio is ≤ 0.25. Then VPFY, with ≤ 0.25; and VLYR, with ≤ 0.25.

Consider KGVQ, for which the enrichment ratio is ≤ 0.25. Regarding YVPI, the enrichment ratio is ≤ 0.25. The result for VMST reads ≤ 0.25. With GYTK, the enrichment ratio is ≤ 0.25.

Turning to IRFI, the enrichment ratio was ≤ 0.25. The result for PCRC reads ≤ 0.25; that for VQVY, ≤ 0.25; that for HMGH, ≤ 0.25. Regarding YFQL, the enrichment ratio is ≤ 0.25. The result for FAWV reads ≤ 0.25; that for HEPG, ≤ 0.25; that for SEYG, 2.2. Regarding VVRC, the enrichment ratio is ≤ 0.25. Take TMKQ: the enrichment ratio is ≤ 0.25. For TQHD, the enrichment ratio worked out at 9.89.

On to YNWN, for which the enrichment ratio is ≤ 0.25. Turning to RAYN, the enrichment ratio is ≤ 0.25.

In the case of SQQN, the enrichment ratio was ≤ 0.25. The result for PYNM reads ≤ 0.25. Take RNAM: the enrichment ratio was ≤ 0.25.

Regarding YNWA, the enrichment ratio was ≤ 0.25. Regarding NLCA, the enrichment ratio was ≤ 0.25. The result for SGPS reads ≤ 0.25; that for LYQL, ≤ 0.25; that for RTEV, ≤ 0.25. Then GDMV, with ≤ 0.25. As to ESFK, the enrichment ratio is ≤ 0.25.

(Values after a collection of fitness landscapes (doi:10.1126/science.1257360).)
